Experimental data from PubChem BioAssay AID902 (National Center for Advancing Translational Sciences (NCATS), 2007).
Screen size: about 130,000 compounds; about 1,900 (1.5%) were called active. Inconclusive means that the source gave no clear call. Such entries were picked first, then a sample of the others. Calls come from the whole dose curve; as a rule, active = well fitted cell-killing curve with a large enough effect; inconclusive = small, poorly fitted or top-dose-only effect; inactive = no such curve, though single readings can be large or run the other way. Potencies beside an inconclusive call are fits to weak or partial responses and may not hold up.

Experiment: qHTS Screen for Compounds that Selectively Target Cancer Cells with p53 Mutations: Cytotoxicity of p53ts Cells at the Nonpermissive Temperature; note: nearly all actives have a fitted effect of over 55% in size
Settings: H1299-p53A138V viability at 39C, ATP luminescence, 24 h; activity change, negative = cell killing: at 46.1 µM (top of the series)
% is set by controls: 0 for no effect and ±100 for the full control effect; potency is the fitted concentration of half-maximal effect; tags give direction and shape of the fitted curve.

**Q.** For `Cc1ccc(CCNC(=O)CCSCc2ccccc2F)cc1`, which “activity change, negative = cell killing” value is on record?
**A.** inactive: -17%

**Q.** For `O=C(N/N=C/c1sc2ccccc2c1O)c1ccccc1`, which Potency is on record?
**A.** active: 7.08 µM

**Q.** Which Potency does the source give for `CSc1nnc(NC(=O)c2ccc(C)c(S(=O)(=O)N3CCOCC3)c2)s1` here?
**A.** inconclusive: 25.1 µM [cytotoxic, single point]

**Q.** For `CCOc1ccc(NC(=O)CSc2oc(-c3cccs3)nc2S(=O)(=O)c2ccc(Cl)cc2)cc1`, which Potency is on record?
**A.** active: 12.6 µM

**Q.** For `NCCCCCCNS(=O)(=O)c1cccc2c(Cl)cccc12`, which Potency is on record?
**A.** active: 31.6 µM

**Q.** Which “activity change, negative = cell killing” value does the source give for `Cc1ccc(S(=O)(=O)Cc2ccc(C(=O)N3CCN(c4cc(C)ccc4C)CC3)o2)cc1` here?
**A.** inactive: 4.38%

**Q.** Which Potency does the source give for `O=C(CSC1=Nc2ccccc2C2=NC(CCC(=O)NC3CCCCC3)C(=O)N12)Nc1cccc(Cl)c1` (stereo unspecified) here?
**A.** inconclusive: 12.6 µM [cytotoxic, partial curve]

**Q.** For `Oc1cccc(Nc2nc(-c3ccccc3)nc3ccccc23)c1`, which Potency is on record?
**A.** inconclusive: 31.6 µM [cytotoxic, single point]

**Q.** With `CCc1cc2c(cc3c(=O)n(CCCC(=O)NCc4cccc(Cl)c4)ncn32)s1` as the molecule, how does the Potency read?
**A.** inconclusive: 5.01 µM [cytotoxic, full curve]

**Q.** For `O=C(CCSCc1ccccc1Cl)NCc1ccc(F)cc1Cl`, which Potency is on record?
**A.** inconclusive: 1.58 µM [cytotoxic, partial curve]

**Q.** Which Potency does the source give for `Cc1cccc(-c2nc3c4ccccc4nc(NCCc4ccccc4)n3n2)c1` here?
**A.** inconclusive: 25.1 µM [cytotoxic, single point]

**Q.** For `CCOc1ccc(NS(=O)(=O)c2ccc3[nH]c4c(c3c2)CCCCC4)cc1`, which Potency is on record?
**A.** inconclusive: 31.6 µM [cytotoxic, single point]

**Q.** With `Cc1ccc(OCCCCn2ccnc2)c(Cl)c1` as the molecule, how does the Potency read?
**A.** inconclusive: 6.31 µM [cytotoxic, full curve]

**Q.** Which Potency does the source give for `Cn1c(SCc2ccc(C#N)cc2Cl)nc2ccccc21` here?
**A.** inconclusive: 12.6 µM [cytotoxic, partial curve]

**Q.** With `Cc1ccc(Cl)cc1Nc1nn2c(=O)c3ccc(C(=O)NCc4ccc(F)cc4)cc3nc2s1` as the molecule, how does the Potency read?
**A.** active: 12.6 µM

**Q.** Which Potency does the source give for `O=C(Nc1ncc(Cc2ccccc2)s1)C1CCCO1` (stereo unspecified) here?
**A.** inconclusive: 6.31 µM [cytotoxic, partial curve, poor fit]

**Q.** With `COc1ccc(-c2nc3cc(NC(=O)CSc4ccc(C)cc4)ccc3o2)cc1` as the molecule, how does the Potency read?
**A.** inconclusive: 10 µM [cytotoxic, partial curve]

**Q.** With `CCc1ccc(NC(=O)Cn2ccn(-c3ccc(C)c(C)c3)c(=O)c2=O)cc1` as the molecule, how does the “activity change, negative = cell killing” value read?
**A.** inactive: 10.5%

**Q.** For `OCC1OC(/C=C\c2ccccc2)C=CC1Oc1ccc2c(c1)OCO2` (stereo unspecified), which Potency is on record?
**A.** inconclusive: 5.01 µM [cytotoxic, single point]

**Q.** For `COC(=O)c1ccc(NC(=O)CN2C(=O)CC(c3ccccc3)Sc3ccccc32)cc1` (stereo unspecified), which activity change, negative = cell killing is on record?
**A.** inconclusive: -37.3% [cytotoxic]

**Q.** With `Cc1csc(NC(=O)c2ccccc2O)n1` as the molecule, how does the Potency read?
**A.** inconclusive: 10 µM [cytotoxic, partial curve, poor fit]

**Q.** With `CC(C)Oc1ccc(C(=O)Nc2c(C(=O)Nc3cccc(F)c3)oc3ccccc23)cc1` as the molecule, how does the Potency read?
**A.** inconclusive: 15.8 µM [cytotoxic, single point]

**Q.** With `N[C@H](CO)Cc1cnc[nH]1` as the molecule, how does the “activity change, negative = cell killing” value read?
**A.** inactive: -6.8%

**Q.** For `CC(C)(C)NC(=O)NC(=O)COc1ccccc1C#N`, which Potency is on record?
**A.** active: 12.6 µM

**Q.** With `CCCCNS(=O)(=O)c1ccc(NC(=O)C2c3ccccc3Oc3ccccc32)cc1` as the molecule, how does the Potency read?
**A.** inconclusive: 22.4 µM [cytotoxic, single point]

**Q.** Which Potency does the source give for `O=C(Nc1ccc2nc(-c3ccc(Br)o3)[nH]c2c1)c1cccs1` here?
**A.** inconclusive: 20 µM [cytotoxic, single point]

**Q.** With `COc1ccc(C2=C(Nc3ccc(C)cc3C)c3ccccc3C2=O)cc1` as the molecule, how does the “activity change, negative = cell killing” value read?
**A.** inactive: -17.2%

**Q.** With `COc1ccccc1NC(=O)c1ccc(S(=O)(=O)N2CCCC2)cc1` as the molecule, how does the “activity change, negative = cell killing” value read?
**A.** inactive: 0.541%

**Q.** For `C=CCn1c(SCC(=O)N2CCOCC2)nc2sc3c(c2c1=O)CCCC3`, which “activity change, negative = cell killing” value is on record?
**A.** inactive: -3.01%

**Q.** For `Cc1ccc(NC(=O)c2noc3c2CCCCC3)cc1`, which Potency is on record?
**A.** inconclusive: 12.6 µM [cytotoxic, partial curve]

**Q.** Which Potency does the source give for `Cc1cccc(-c2cc(=O)c3cc(C)ccc3o2)c1` here?
**A.** inconclusive: 10 µM [cytotoxic, full curve]

**Q.** Which Potency does the source give for `O=C(N=C1SCC(=O)N1c1ccccc1Cl)c1ccco1` here?
**A.** inconclusive: 12.6 µM [cytotoxic, single point]

**Q.** Which “activity change, negative = cell killing” value does the source give for `Cc1c(C(=O)N(C)C)sc2c1c(=O)n(-c1ccc(Cl)c(Cl)c1)c(=O)n2CC(=O)N1CCCCC1C` (stereo unspecified) here?
**A.** inactive: 21.5%

**Q.** For `CCOc1ccc(NC(=O)CSc2nnc(CNC(=O)C34CC5CC(CC(C5)C3)C4)n2CC)cc1`, which “activity change, negative = cell killing” value is on record?
**A.** inactive: -13.6%

**Q.** With `O=C(CSc1nc2ncccc2o1)Nc1cccc(C(F)(F)F)c1` as the molecule, how does the Potency read?
**A.** inconclusive: 3.98 µM [cytotoxic, full curve, poor fit]

**Q.** With `COc1ccc(N2CC(NC(=O)C3CCCCC3)CC2=O)cc1OC` (stereo unspecified) as the molecule, how does the “activity change, negative = cell killing” value read?
**A.** inactive: -3.8%

**Q.** Which Potency does the source give for `CC1CCN(c2ncnc3c2c(-c2ccccc2)cn3-c2ccc(Br)cc2)CC1` here?
**A.** inconclusive: 3.16 µM [cytotoxic, full curve, poor fit]

**Q.** Which Potency does the source give for `CC(C)C(=O)Nc1cccc(NC(=O)c2cc3ccccc3o2)c1` here?
**A.** inconclusive: 12.6 µM [cytotoxic, single point]

**Q.** For `CN(C)c1ccc(-c2cc(Nc3ccc(F)cc3)ncn2)cc1`, which Potency is on record?
**A.** inconclusive: 12.6 µM [cytotoxic, partial curve]

**Q.** With `COc1ccc(C(=O)CSc2nc3nc(C)cc(C)c3c(=O)[nH]2)cc1OC` as the molecule, how does the “activity change, negative = cell killing” value read?
**A.** inactive: 6.92%

**Q.** With `CCc1cccc(-n2c(=O)c3cccnc3n2CC(=O)NCc2ccc(C)cc2)c1` as the molecule, how does the “activity change, negative = cell killing” value read?
**A.** inactive: -5.37%

**Q.** With `Cc1ccc(NC(=O)c2cc3ccccn3n2)cc1F` as the molecule, how does the Potency read?
**A.** inconclusive: 7.94 µM [cytotoxic, partial curve]

**Q.** With `CCN1CCN(Cc2nc3c(c(=O)n(C)c(=O)n3C)n2Cc2ccc(Cl)cc2Cl)CC1` as the molecule, how does the Potency read?
**A.** inconclusive: 12.6 µM [cytotoxic, single point]

**Q.** Which Potency does the source give for `CC(C)(C)c1ccc(OCC(=O)NCC2(N3CCOCC3)CCCCC2)cc1` here?
**A.** active: 15.8 µM

**Q.** For `O=C(Nc1nc2ccc(F)cc2s1)c1nc(S(=O)(=O)Cc2ccccc2F)ncc1Cl`, which Potency is on record?
**A.** active: 5.01 µM

**Q.** Which Potency does the source give for `CCOc1ccc(S(=O)(=O)NCCc2c(C)[nH]c3c(Cl)cccc23)cc1C` here?
**A.** inconclusive: 12.6 µM [cytotoxic, single point]

**Q.** Which Potency does the source give for `COc1ccc(NC2=C(c3ccccc3)C(=O)c3ccccc32)cc1Cl` here?
**A.** inconclusive: 31.6 µM [cytotoxic, single point]

**Q.** Which Potency does the source give for `Cc1nnc(NC(=O)c2ccc(S(=O)(=O)N(C)Cc3ccccc3)cc2)o1` here?
**A.** inconclusive: 15.8 µM [cytotoxic, partial curve]

**Q.** For `C=Cc1c(C)c2cc3nc(cc4[nH]c(cc5nc(cc1[nH]2)C(C)=C5CCC(=O)O)c(CCC(=O)OC)c4C)[C@@]1(C)C3=CC=C(C(=O)OC)[C@H]1C(=O)OC` (tested in a mixture with another compound), which “activity change, negative = cell killing” value is on record?
**A.** inactive: -0.946% [at 20.6 µM]

**Q.** Which Potency does the source give for `COCc1nnc(NC(=O)c2sc3ccccc3c2Cl)s1` here?
**A.** active: 15.8 µM

**Q.** With `CCc1ccc(C2=CC(c3c(F)cccc3Cl)n3c(nc4ccccc43)N2)cc1` (stereo unspecified) as the molecule, how does the Potency read?
**A.** inconclusive: 10 µM [cytotoxic, partial curve]

**Q.** Which “activity change, negative = cell killing” value does the source give for `Cc1cc(C(=O)Nc2sc3c(c2C#N)CCC(C)C3)no1` (stereo unspecified) here?
**A.** inactive: -3.23%

**Q.** Which Potency does the source give for `C/C(=N/Nc1nc(-c2ccccc2)cc(-c2ccc(F)cc2)n1)c1cccc(N)c1` here?
**A.** inconclusive: 35.5 µM [cytotoxic, single point]

**Q.** Which Potency does the source give for `COC(=O)/C=C/S(=O)(=O)c1ccc(NC(C)=O)cc1` here?
**A.** inconclusive: 25.1 µM [cytotoxic, single point]

**Q.** With `CC(C)CCn1c(/C=C/c2ccccc2)nc2ccccc21` as the molecule, how does the Potency read?
**A.** inconclusive: 7.94 µM [cytotoxic, partial curve]

**Q.** With `Cc1ccc(-c2cn3ccc(C)cc3n2)cc1` as the molecule, how does the Potency read?
**A.** active: 0.631 µM

**Q.** For `COc1cccc2sc(N(C)c3ccccc3)nc12`, which Potency is on record?
**A.** active: 12.6 µM

**Q.** For `CCNS(=O)(=O)c1c(C)cc(N2CCCC2=O)cc1C`, which Potency is on record?
**A.** inconclusive: 31.6 µM [cytotoxic, single point]

**Q.** For `Cc1ccc(C)c(N2CCN(CCCNC(=O)c3ccc4nc(CCc5ccccc5)oc4c3)CC2)c1`, which Potency is on record?
**A.** active: 25.1 µM

**Q.** With `c1ccc(-c2ccc(OCCOCCn3cncn3)cc2)cc1` as the molecule, how does the Potency read?
**A.** inconclusive: 31.6 µM [cytotoxic, single point]

**Q.** With `Cc1ccc(C(=O)N/C(=C\c2ccc(Cl)cc2)C(=O)NC2CCCCC2)cc1` as the molecule, how does the Potency read?
**A.** inconclusive: 10 µM [cytotoxic, partial curve]

**Q.** For `N#Cc1c(-n2ncnc2-c2ccc(F)cc2)sc2c1CCCCC2`, which Potency is on record?
**A.** active: 12.6 µM

**Q.** For `O=C(CSCc1cnn(-c2ccccc2)c1-n1cccc1)NCc1cccc(Cl)c1`, which Potency is on record?
**A.** inconclusive: 20 µM [cytotoxic, partial curve, poor fit]

**Q.** With `Cc1nc(CSc2nnc(C)s2)cs1` as the molecule, how does the “activity change, negative = cell killing” value read?
**A.** inactive: -1.73%

**Q.** Which Potency does the source give for `CC(C)Cc1cc(C(=O)Nc2ccc3c(c2)OCO3)no1` here?
**A.** inconclusive: 15.8 µM [cytotoxic, partial curve]

**Q.** Which Potency does the source give for `CCc1ccc(-n2c(=O)c3c4c(sc3n(CC(=O)c3ccc(Br)cc3)c2=O)CCC4)cc1` here?
**A.** inconclusive: 10 µM [cytotoxic, single point]

**Q.** For `Cc1ccc(S(=O)(=O)Nc2ccc3nc(-c4ccc(F)cc4)oc3c2)cc1`, which activity change, negative = cell killing is on record?
**A.** inconclusive: -78.1% [cytotoxic]

**Q.** Which “activity change, negative = cell killing” value does the source give for `O=c1[nH]c(=O)n(C2CC(O)C(CO)O2)cc1F` (stereo unspecified) here?
**A.** inactive: -14.9%

**Q.** With `Cc1ccc(CNC(=O)c2c(C)oc3ncnc(N4CCOCC4)c23)cc1` as the molecule, how does the Potency read?
**A.** inconclusive: 1.26 µM [cytotoxic, single point]

**Q.** Which Potency does the source give for `CC(=O)Nc1cccc(Oc2ccc(-c3noc(C)n3)cc2)c1` here?
**A.** inconclusive: 15.8 µM [cytotoxic, partial curve]

**Q.** With `CCS(=O)(=O)c1ncc(Cl)c(C(=O)NCc2ccc(OC)cc2)n1` as the molecule, how does the Potency read?
**A.** inconclusive: 25.1 µM [cytotoxic, single point]
